# Data taken from the supplement of paper PMC3334620.
# In all, about 33,000 sequences were measured (“E-score (-0.5 to 0.5)”: median about -0.054, highest 2% from about 0.35 on). This is one part of the list.
# Biological target: T1, Stb5 (UniProt P38699)
# T1 sequence: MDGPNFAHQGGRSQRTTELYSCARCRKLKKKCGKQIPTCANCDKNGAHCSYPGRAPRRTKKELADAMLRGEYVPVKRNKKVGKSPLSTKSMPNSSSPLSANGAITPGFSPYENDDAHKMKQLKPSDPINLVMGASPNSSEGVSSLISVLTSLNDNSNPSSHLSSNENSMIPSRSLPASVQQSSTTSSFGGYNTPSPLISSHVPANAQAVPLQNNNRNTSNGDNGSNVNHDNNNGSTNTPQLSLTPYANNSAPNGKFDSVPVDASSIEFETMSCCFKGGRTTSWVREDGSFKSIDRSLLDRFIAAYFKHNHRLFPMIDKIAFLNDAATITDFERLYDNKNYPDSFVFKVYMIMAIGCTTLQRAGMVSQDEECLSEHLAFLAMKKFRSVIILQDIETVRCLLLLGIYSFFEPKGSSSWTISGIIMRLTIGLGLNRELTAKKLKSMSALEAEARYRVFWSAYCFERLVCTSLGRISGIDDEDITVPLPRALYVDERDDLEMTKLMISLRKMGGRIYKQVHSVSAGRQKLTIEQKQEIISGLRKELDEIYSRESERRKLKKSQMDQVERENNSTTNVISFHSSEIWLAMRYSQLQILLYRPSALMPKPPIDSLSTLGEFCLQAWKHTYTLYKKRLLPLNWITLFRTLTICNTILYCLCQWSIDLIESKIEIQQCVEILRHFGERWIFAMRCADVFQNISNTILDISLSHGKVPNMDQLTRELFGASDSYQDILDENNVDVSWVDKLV
# Experiment: PBM E-score (8-mer binding enrichment) (E-score (-0.5 to 0.5)); higher = stronger / more preferred TF binding; most listed sequences are background and not binding sites
# Conditions: protein concentration: 200 nM; construct: GST-full length
# Description: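 Universal 'all 10-mer' protein binding microarrays (Agilent AMADID 015681) probed with GST-tagged S. cerevisiae TFs (full-length or DBD) made by in vitro transcription/translation (PURExpress), about 100-200 nM. Bound TF was detected with fluorescent anti-GST. Each ungapped 8-mer (which stands for itself and its reverse complement) is scored by the PBM enrichment score (E-score), a modified Wilcoxon-Mann-Whitney statistic from -0.5 to +0.5, computed with the Universal PBM Analysis Suite. Scale: above 0.35 generally sequence-specific binding.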
row,Sequence,PBM E-score
1,CGGGCCGC,0.195
2,GACGTTGA,-0.0865
3,ACAACTGG,-0.043
4,TTCTAGAA,0.0589
5,ACGGGTCC,0.136
6,ATTACCAG,-0.00345
7,ACATCTCA,-0.186
8,ATAAGACG,-0.111
9,ACCGCGCG,0.335
10,TATCCTGA,-0.165
11,CGTGACTC,-0.0673
12,ATCAAAAA,-0.105
13,GATATCCA,-0.16
14,CGTCACAC,-0.0536
15,CCCTCCAC,-0.135
16,CAGCAGGG,-0.0502
17,GATCAATA,-0.00908
18,CAAGTAGC,-0.0947
19,ATAATTCG,0.0966
20,CGTCCACG,0.101
21,AGCTTTTA,-0.0402
22,CGGGCTAC,-0.00212
23,CTAACTGA,-0.00089
24,GCGACGCA,0.0501
25,TGTACTAA,-0.0713

row,Sequence,PBM E-score
1,ACCATGGA,-0.182
2,CGTGTCTA,-0.0149
3,GCGTGGAC,0.0763
4,ACGCGAAC,-0.196
5,GTGGTCAA,-0.291
6,GAAATACA,-0.136
7,CGAGATAC,0.0896
8,CTCTGGGA,-0.104
9,AGTGGGCA,-0.0991
10,AGTCCACC,0.0594
11,AAGAAGAG,-0.141
12,TGAGCACA,-0.208
13,CAATTCAC,-0.0252
14,CCTCACGC,-0.126
15,ACGTACCT,-0.374
16,AATTCCGT,0.267
17,CCCCGACA,0.412
18,ACGCATGA,-0.175
19,CGGTGCAA,0.348
20,CTCACCAG,-0.12
21,ACCAAGTC,0.0973
22,TGCCGCAA,0.193
23,TATGAGAA,-0.141
24,AGGAACAT,-0.318
25,AGAAACTA,-0.242

row,Sequence,PBM E-score
1,CTCAGCTA,-0.177
2,CAGCGAAA,-0.0202
3,CACTTTAC,-0.083
4,ATTAAGGC,0.0694
5,AGGACGCC,-0.073
6,CGTCTAAC,0.0919
7,CTAATCAA,0.0172
8,GGTTACGA,-0.0527
9,ATGGGGTG,-0.183
10,GTGGCCTA,-0.157
11,CCCTTTCA,-0.091
12,ACATTATA,-0.0212
13,CTCTTCCA,-0.0723
14,GCTAATAC,0.212
15,ATTACAAG,-0.0874
16,CACGGGGA,0.319
17,ATGAATCA,-0.182
18,GACAAGTC,-0.142
19,ATAACGGG,0.187
20,TTGATAAA,0.0862
21,CCGTATCA,0.145
22,CTGCAGGA,-0.0496
23,CATACACG,-0.181
24,CCATAAAC,-0.00805
25,GTAAGCGA,-0.237

row,Sequence,PBM E-score
1,CAGGTAAG,0.0157
2,CGAGCTCA,0.0513
3,AGGCGGTA,0.287
4,AATAGCGT,0.179
5,GAATGACA,-0.252
6,TCCGAGAA,0.0847
7,GGTCCCAC,0.0784
8,GGGTGGCA,-0.14
9,AAGAATGT,-0.182
10,CGACCCGA,0.117
11,CCAGGCGG,0.28
12,AGACGCGC,-0.127
13,AGGTCGAA,-0.127
14,ACTAAACC,0.288
15,ACGAGTGC,-0.0871
16,CCCACCTA,-0.0465
17,TATAACGA,-0.0284
18,ATCGGCTA,0.102
19,CAGAATCC,-0.0711
20,CCGTTGAA,0.104
21,CATATAGC,0.0431
22,GCGTAACC,-0.0202
23,ATGGTTAC,-0.233
24,CGCCACCA,0.0934
25,ACAGTAAA,-0.0941

row,Sequence,PBM E-score
1,AAGGGCAG,-0.293
2,CGACTTAC,0.0696
3,GGATTGGA,-0.103
4,GAGTGACC,-0.0936
5,GGCAATTA,0.163
6,ATACCGGC,0.304
7,CTGTTTAA,0.14
8,AATCGCAA,-0.0633
9,AGTACGGG,0.0873
10,TAAGCTAA,0.00383
11,CTTTCGGC,0.184
12,CCTTCGTA,-0.0357
13,CACATCTG,-0.103
14,AAGTAAAC,0.0705
15,GTCGCCAC,-0.186
16,AAACAAAG,0.0786
17,ATGGATAC,-0.191
18,TCTGGTAA,0.025
19,GAGAGGCA,-0.131
20,AGGCACCG,0.328
21,CCACACCA,-0.256
22,TCATTTAA,-0.137
23,CGTGGCAA,-0.0429
24,CGATAGTC,-0.0519
25,AGAACTCT,-0.216

row,Sequence,PBM E-score
1,GTACCGAC,0.382
2,ATGCGGAA,0.154
3,CCACACGG,0.0636
4,GTCGTACA,-0.068
5,GAGATTTA,0.0902
6,CGGCACAG,0.11
7,AACACTAC,-0.17
8,AGAATCGC,0.232
9,CACTATGC,-0.0324
10,CCGCGAAA,0.236
11,ACGCCAAA,-0.162
12,CAAAGCTA,0.0075
13,AGCCGTGC,-0.0522
14,ACTTAATA,-0.0419
15,GGATTGAC,-0.0821
16,ATGAGGAG,-0.113
17,AGAAGCCA,-0.135
18,ATCGATGC,-0.0102
19,CCCGTCAC,0.281
20,GACGATAA,-0.0302
21,AGCGGCAT,0.401
22,AAATTTAT,-0.0756
23,CCGACTAG,0.297
24,CTTAATGA,-0.095
25,TTCACCAA,-0.0231

row,Sequence,PBM E-score
1,GTCCAGGA,-0.228
2,GCATTTCC,0.0245
3,AATCACGG,0.235
4,GATCTTCC,0.058
5,AGTATCAC,0.0424
6,CGCTACCC,-0.0254
7,CAACACTG,-0.305
8,CGTTCAGA,-0.159
9,CGGCGATA,0.463
10,AGTACAAA,-0.232
11,AAACTGCC,0.062
12,CGATAACA,0.191
13,ATTGCATA,-0.0781
14,ATGATGCA,-0.187
15,CCGCAGAG,0.0199
16,AACACGAG,-0.114
17,ACACAAAT,-0.0925
18,AAGCATGG,-0.088
19,ACTGATAT,-0.0693
20,AGCTAACC,0.0264
21,GATCGGAC,0.415
22,GTTACCCA,-0.115
23,ATATGCAC,-0.175
24,AGGTGGTC,-0.203
25,AAGTATCA,-0.126

row,Sequence,PBM E-score
1,ATCGTTGG,-0.205
2,ACCTGAGG,0.0237
3,GCGATAGA,0.13
4,AAGATTAC,0.0892
5,ACACGCGG,0.181
6,GCTACACC,0.0808
7,ATATAGCA,0.00261
8,CAAACCAA,-0.233
9,ACATGTAG,-0.11
10,GCCTGGAA,-0.338
11,AGACTATA,-0.0559
12,AATTTCCT,-0.191
13,CAGGATCC,-0.0743
14,TTAGAGAA,-0.327
15,CACGGACG,0.147
16,CGCTTGCC,0.00486
17,CAATTAAA,-0.00358
18,CGACGTCA,-0.19
19,AGTAAACC,0.165
20,CGGACACA,0.356
21,ACCGAAGT,0.108
22,GGGAGGAC,-0.126
23,ATGCCTCC,0.105
24,CCCTCAGA,-0.174
25,AATAGTCC,0.335

row,Sequence,PBM E-score
1,GAACCCCC,0.07
2,CTAGAATC,-0.0612
3,GCTTGGCC,0.143
4,CTGTCACC,0.0942
5,CATGTCAG,-0.276
6,CTTTAAAG,-0.176
7,GAAGCCTA,0.00672
8,AGTTGACG,0.0184
9,GATCAAAC,-0.0286
10,AGTGAGCC,-0.0796
11,CATCACTC,-0.0848
12,TCAGCCCA,-0.195
13,ATCGTCAT,-0.187
14,CACTAACA,-0.0592
15,ACACGAAC,0.069
16,CGTTTCAC,-0.027
17,CCTTCAAC,-0.248
18,CCCGTACG,0.121
19,CCTGCCTC,-0.158
